The whole screen tested about 94,000 compounds, of which about 4,000 (4.3%) were called active. The shares of active, inactive and inconclusive entries below differ from those in the screen. Calls follow the shape of the dose curve; as a rule, active = well fitted inhibition curve with a large enough effect; inconclusive = small, poorly fitted or top-dose-only effect; inactive = no such curve, though single readings can be large or run the other way. Where the call is inconclusive, the potency comes from a doubtful curve fit.
experiment: Cytotoxic Profiling in NIH 3T3 Cell Line of Diverse Libraries Using Quantitative High-Throughput Screening; conditions: NIH 3T3 viability, CellTiter-Glo ATP luminescence, 48-72 h; activity change, negative = cytotoxicity: at 96.7 µM (top of the series) unless noted; series mostly up to 96.7 µM; also: nearly all actives have a fitted effect of over 55% in size
Procedure, shortened: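 NIH 3T3 cells at 400 cells/well received 23 nL of compound by pintool and were incubated 48 or 72 h at 37 °C. Viability was read as ATP-coupled CellTiter-Glo luminescence.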
% is scaled to controls: 0 for no effect and ±100 for the full control effect; potency is read from the fitted curve at half-maximal effect; tags tell the direction and shape of the fitted curve.

Row | Structure (SMILES) | activity change, negative = cytotoxicity | Potency
1 | O=C(NC1CC1)C1CCN(Cc2ccccc2-c2ccccc2F)CC1 | inactive: -31.2% | –
2 | CN(C)C(=O)c1n[nH]c2c1CN(C(=O)c1cc(F)cc(F)c1)CC2 | inactive: -13% | –
3 | O=C(c1ccc(-c2cccs2)cc1)N1CCC(C(=O)N2CCN(Cc3ccccc3)CC2)CC1 | – | inconclusive: 44.7 µM [inhibitor, partial curve, poor fit]
4 | O=C([C@H]1CCCN1C(=O)Cc1cccc(Cl)c1)N1CCC(N2CCOC2=O)CC1 | inactive: -7.28% | –
5 | Cc1cc(C)c([S+](=O)([O-])c2nnn3c2nc(N2CCC(F)CC2)c2ccccc23)c(C)c1 | inactive: -17.1% | –
6 | Cc1ccccc1C(=O)NC1CCN(c2cc(-c3ccc(Cl)cc3)[nH]n2)CC1 | – | inconclusive: 20 µM [inhibitor, full curve]
7 | CCCc1noc(-c2cn(C3CCN(C(=O)c4ccc(C)cc4)CC3)nn2)n1 | – | inconclusive: 39.8 µM [inhibitor, partial curve, poor fit]
8 | O=C(C1CCCC1)N1CCC(n2cc(-c3nc(-c4ccccc4)no3)nn2)CC1 | – | inconclusive: 35.5 µM [inhibitor, partial curve, poor fit]
9 | COc1ccccc1C(=O)N1CCCC2(CC(c3cccnc3)=NO2)C1 (centres undefined) | inactive: -22.3% | –
10 | COCC(=O)N1CCCC(C(=O)NCCCc2ccccc2)CCNC(=O)CC1 (centres undefined) | inactive: -15.1% | –
11 | CCOCCCNC(=O)C1CCCCN1Cc1ccc(-c2ccccc2OC)cc1 (centres undefined) | – | inconclusive: 44.7 µM [inhibitor, partial curve, poor fit]
12 | Cc1cccc(OCCc2noc(C3CN(C4CCN(Cc5ccccc5)CC4)C3)n2)c1 | inactive: -26.6% | –
13 | CCCNC(=O)N(C1CCOCC1)C1CCN(C(=O)CCc2c[nH]c3ccccc23)CC1 | – | inconclusive: 70.8 µM [inhibitor, single point]
14 | COCCN1CCN(C(=O)[C@@H]2Cc3cn(Cc4cc(C)on4)c4cccc(c34)[C@H](CC(C)C)N2)CC1 | – | inconclusive: 50.1 µM [inhibitor, single point]
15 | O=C1CC(c2ccccc2)N(C(=O)CCc2ccccc2)CCCCCN1 (centres undefined) | inactive: -21.6% | –
16 | O=[S+]([O-])(Nc1ccccc1)c1ccc2c(c1)OCCN(Cc1cccnc1)C2 | – | inconclusive: 56.2 µM [inhibitor, partial curve, poor fit]
17 | CN(C)C[C@@H]1CN(C2CCOCC2)C[C@H]1NC(=O)c1ccc(F)c(Cl)c1 | – | inconclusive: 56.2 µM [inhibitor, partial curve, poor fit]
18 | O=C(Cc1ccccc1F)NC1CCN(c2cc(-c3cccs3)[nH]n2)C1 (centres undefined) | – | inconclusive: 31.6 µM [inhibitor, full curve]
19 | O=C(NCC(=O)N1CCC(c2ccccc2)CC1)c1cccc(-c2ccc(C(F)(F)F)cc2)c1 | – | inconclusive: 20 µM [inhibitor, full curve]
20 | O=C(NC(c1ccccc1)c1ccccc1)c1cnc2c(c1)N(Cc1ccccc1)CCC2 | – | inconclusive: 31.6 µM [inhibitor, full curve, poor fit]

Row | Structure (SMILES) | activity change, negative = cytotoxicity | Potency
21 | CN(C(=O)Cc1c[nH]c2ncc(-c3cnn(C)c3)cc12)c1ccccc1 | – | inconclusive: 10 µM [inhibitor, full curve, poor fit]
22 | FC(F)(F)c1cccc(-c2cc(C3=CCOCC3)c3cncn3c2)c1 | – | inconclusive: 56.2 µM [inhibitor, partial curve, poor fit]
23 | CC(C)c1nc2c(c(-c3ccc(O)cc3)n1)CN(Cc1ccc(OC(F)(F)F)cc1)CC2 | – | active: 22.4 µM
24 | Cc1cccc(C(=O)N2CC(Oc3cccc(-c4nc(-c5ccccc5)no4)c3)C2)c1 | – | inconclusive: 50.1 µM [inhibitor, partial curve, poor fit]
25 | Cc1nc(-c2c3n(c(=O)n(CC(=O)Nc4ccc(C)c(F)c4)c2=O)CCCCC3)no1 | – | inconclusive: 79.4 µM [inhibitor, partial curve, poor fit]
26 | CCCCCN1CCc2ccccc2OCC(=O)N(C)[C@@H](Cc2ccc(OCC(=O)OC)cc2)C1=O | – | inconclusive: 44.7 µM [inhibitor, partial curve, poor fit]
27 | N#Cc1cccc(CN2Cc3[nH]cnc3C[C@H]2c2nc(-c3cccc([N+](=O)[O-])c3)no2)c1 | – | inconclusive: 50.1 µM [inhibitor, partial curve]
28 | O=C1CCN(C(=O)c2ccccc2)CCCC(C(=O)NCCCN2CCCc3ccccc32)CCN1 (centres undefined) | – | inconclusive: 70.8 µM [inhibitor, single point]
29 | CNC(=O)[C@@H]1CN(C(=O)CCc2c[nH]c3ccccc23)C[C@H]1CO | inactive: -9.41% | –
30 | O=C(Nc1ccc2c(c1)CCC2)c1cc2c(s1)CN(C1CC1)C2 | – | inconclusive: 50.1 µM [inhibitor, partial curve, poor fit]
31 | c1ccc(CN2CCC3(CC2)CC(c2cccnc2)=NO3)cc1 | – | inactive
32 | COc1cccc(C(=O)N2CCc3nc(C4CC4)nc(-c4ccc(O)cc4)c3C2)c1 | – | inconclusive: 50.1 µM [inhibitor, partial curve, poor fit]
33 | O=C(O)c1cccc2c1CCN2C(=O)Nc1ccc(F)cc1 | – | inconclusive: 10 µM [inhibitor, full curve, poor fit]
34 | Cn1cccc1C(=O)N1CCC(c2noc(COc3ccc(F)cc3)n2)CC1 | – | inconclusive: 44.7 µM [inhibitor, partial curve]
35 | CNC(=O)[C@H]1C[C@]2(CCCCNC2=O)N(C(=O)c2cccc(C#N)c2)[C@H]1c1ccco1 | – | inconclusive: 79.4 µM [inhibitor, partial curve, poor fit]
36 | CCOc1ccccc1CN1CCCCCNC(=O)[C@@H]2CCC[C@@H]21 | – | inconclusive: 50.1 µM [inhibitor, partial curve, poor fit]
37 | Cn1cccc1CN1CCC2(CC1)COc1ccccc1NC2=O | – | inconclusive: 63.1 µM [inhibitor, partial curve, poor fit]
38 | COc1ccc(OCc2nc(C3CN(C(=O)c4cccn4C)C3)no2)cc1 | – | inconclusive: 50.1 µM [inhibitor, partial curve, poor fit]
39 | O=C(c1ccc(C(F)(F)F)cc1)N1CCC2(CN[S+](=O)([O-])c3ccccc3N2)C1 (centres undefined) | inactive: -11.5% | –
